Measured values published in ChEMBL document CHEMBL4888484, “Replenishing the malaria drug discovery pipeline: Screening and hit evaluation of the MMV Hit Generation Library 1 (HGL1) against asexual blood stage Plasmodium falciparum ,using a nano luciferase reporter read-out” (2022).
Among all 150,000 compounds or so, about 540 (0.36%) showed an effect of 50% or more. This is one part of the list.

system: Plasmodium falciparum; experiment: Primary screen in NF54 nanoGlo assay, in single point, at 2uM, 72h; a lower Z score goes with more inhibition; assay type: functional, Erythrocyte; details: timepoint 72 hour

SMILES | % Inhibition [%] | Z score
Cc1cccc(C)c1NCC(=O)Nc1ncc(Cc2ccccc2)s1 | 0 | -0.06
Cc1nn(C)c2nc(N3CCCC[C@@H]3CCN3CCN(C)CC3)sc12 | -5 | 0.94
COCCN1CCC[C@H](NC(=O)c2cc(F)cc3ccoc23)C1 | 1 | -0.09
Cc1nnc(Cn2ncnc2-c2ccccc2Cl)o1 | 38 | -5.51
CC(C)(C)C[C@H]1CCN(C(=O)CCc2ccc(C(N)=O)cc2)C1(C)C | -11 | 2.22
COc1ccc([C@H]2CC(O)=Nc3c2ncn3-c2cc(F)ccc2F)cc1O | -1 | 0.08
Cc1nccc(Oc2ccc(-n3ncc4ccccc43)cc2)n1 | -20 | 2.37
Cc1ccccc1NS(=O)(=O)c1cc(-c2ccnn2C)cs1 | -5 | 0.62
CCCCn1nc(CC(N)=O)nc1[C@@H]1[C@H]2[C@@H]3CC[C@@H](C3)[C@@H]12 | 13 | -1.65
CCCC(O)(CCC)CNC(=O)C(=O)Nc1ccc(Br)cn1 | -5 | 0.94
Cc1noc(C2CCN(CCC(C)N3CCC(c4nc(C)no4)C3)C2)n1 (centres undefined) | 0 | -0.01
CC(C)OCC1CCN(CCS(C)(=O)=O)CC1 | -10 | 1.88
CCOc1cc(N2CCC(NC(=O)c3ccoc3C)CC2)ncn1 | 4 | -0.68
CC1=C(C)CC(C(=O)N2CCN(C3CCCCC3)CC2)C(C(=O)O)C1 (centres undefined) | 4 | -0.88
Cc1cccc(NS(=O)(=O)c2ccc3c(c2)OC[C@@H](C(=O)N2CCOCC2)O3)c1C | -22 | 2.37
O=C(NCCN1C(=O)COC1=O)Nc1nc(-c2ccccn2)cs1 | 10 | -1.34
CCCc1nc(CN2CCCC[C@@H]2Cn2cncn2)no1 | 3 | -0.46
CCn1ccnc1C1CCCCN1C(=O)C1CCCN(C(N)=O)C1 (centres undefined) | 2 | -0.36
CO[C@@H]1CCC[C@@H]2CN(C(=O)C3(c4ccccc4)CCCC3)C[C@@H]21 | -4 | 0.35
CCC[C@@H](CC(=O)O)NC(=O)c1ccn(C(F)F)n1 | -15 | 1.95
Cc1ccc(C)c(CNC(=O)[C@@H]2CCCCc3n[nH]c(=O)n32)c1 | -15 | 1.47

SMILES | % Inhibition [%] | Z score
CCc1ncncc1C(=O)N1CCc2ccc(Br)cc21 | 8 | -1.06
O=C1COc2cccnc2N1Cc1nccs1 | -7 | 1.18
C[C@H]1CCN(C(=O)NCc2nccc(C(F)F)n2)[C@@H](C)C1 | -9 | 1.77
COc1cc(-c2cccc(C(=O)N[C@H]3CCS(=O)(=O)C3)c2)nc(OC)n1 | -3 | 0.51
O=C(NCc1ccccc1Cl)c1nn(-c2ccccc2)c(=O)c2ccccc12 | -14 | 2.2
FC(F)(F)Oc1ccc(Nc2nc(N3CCCCC3)nc(N3CCN(c4cccc(Cl)c4)CC3)n2)cc1 | -10 | 1.26
O=C1CCC(=O)n2ncc(-c3ccc(Cl)cc3)c2N1 | 2 | -0.2
Cc1nc(C2CCOCC2)n([C@H]2CCN(S(=O)(=O)c3cc(F)cc(F)c3)C2)n1 | -5 | 0.63
COc1cccc(CN2C(=O)N[C@@](C)(C3CCN(C(=O)c4cccnc4OC)CC3)C2=O)c1OC | 8 | -1.05
CN1C[C@@H](O)CNS(=O)(=O)c2ccc(-c3cnn(C)c3)cc2O[C@H]2CN(Cc3nccn3C)C[C@H]21 | -1 | 0.14
CCN(CC)c1nc(=O)c2c(ncn2Cc2cccc(OC)c2)c(=O)[nH]1 | -7 | 1.03
CC(=O)Nc1ccn([C@H]2CCN(Cc3ccnc(C#N)c3)C2)n1 | -8 | 1.15
Cc1nc2oc(-c3ccccc3)nc2cc1NC(=O)c1cccc(Br)c1 | -9 | 1.09
Cc1ocnc1Cn1nnc([C@@H](NC(=O)c2ccccc2)C2CC2)n1 | -12 | 1.04
O=C(Nc1ccc(C(F)(F)F)cc1)[C@@H]1CCN(c2ccccc2Br)C1=O | 7 | -1.36
Cc1occc1C(=O)Nc1cccc2ccccc12 | -5 | 0.59
CC1c2ccccc2OC1C(=O)Nc1cnccn1 (centres undefined) | -12 | 1.16
O=S(=O)(c1ccc(Cl)cc1)[C@H]1CCN(S(=O)(=O)c2cc(F)ccc2F)C1 | 10 | -1.8
CCc1nc2c(N3CCC[C@@]4(CCOC4)C3)ncnc2o1 | 15 | -2
O=C1CN(C(=O)[C@@H]2COc3ccccc3O2)CN1CC1CC1 | -13 | 1.99
CCC(CC)(CCO)CNC(=O)c1ccncc1Cl | -6 | 0.63
